Measurements: the supplement of paper PMC4604168 (melanoma cell lines)
Some of the results follow. Single values are uncertain, as repeats are few or missing.

Columns and labels:
Test in all cases: cell count relative to DMSO control; melanoma cells; higher = more viable cells
Conditions in all cases: library dose: low library concentration; 72 h
WM115 = tested on: WM115
WM1716 = tested on: WM1716
WM1745 = tested on: WM1745
WM3526 = tested on: WM3526
WM3619 = tested on: WM3619
WM451Lu = tested on: WM451Lu
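Also: cell number obtained by counting DAPI-stained nuclei in high-throughput microscope images with image analysis software, screen run in 1,536-well plates.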

Compound | cell count (WM115) [%] | cell count (WM1716) [%] | cell count (WM1745) [%] | cell count (WM3526) [%] | cell count (WM3619) [%] | cell count (WM451Lu) [%]
Nc1ccn([C@@H]2O[C@H](CO)[C@@H](O)C2(F)F)c(=O)n1 [gemcitabine] + Cc1ccc(NC(=O)c2cccc(N(C)C)c2)cc1NC(=O)c1ccc(O)cc1 [ZM336372] (first compound 0.0004 µM, partner dose 2 µM) | 97.1 | 117 | 78.5 | 101 | 92.5 | 91.2
Nc1nc(F)nc2c1ncn2[C@@H]1O[C@H](CO)[C@@H](O)[C@@H]1O [fludarabine] + Cc1cc(N2CCOCC2)cc2[nH]c(-c3c(NC[C@@H](O)c4cccc(Cl)c4)cc[nH]c3=O)nc12 [BMS536924] (first compound 0.2 µM, partner dose 0.2 µM) | 103 | 119 | 91.8 | 19.6 | 82.1 | 30.4
CO[C@H]1C[C@@H]2CC[C@@H](C)[C@@](O)(O2)C(=O)C(=O)N2CCCC[C@H]2C(=O)O[C@H]([C@H](C)C[C@@H]2CC[C@@H](OCCO)[C@H](OC)C2)CC(=O)[C@H](C)/C=C(\C)[C@@H](O)[C@@H](OC)C(=O)[C@H](C)C[C@H](C)/C=C/C=C/C=C/1C [everolimus] + Cc1cc([N+](=O)[O-])ccc1NS(=O)(=O)c1cc(Cl)ccc1Cl [FH535] (first compound 0.02 µM, partner dose 1 µM) | 71.6 | 75.6 | 78.9 | 65.5 | 68.2 | 85.4
CC(=O)c1c(C)c2cnc(Nc3ccc(N4CCNCC4)cn3)nc2n(C2CCCC2)c1=O [palbociclib] + C[C@]1(c2nc3c(C(N)=O)cccc3[nH]2)CCCN1 [Veliparib] (first compound 0.04 µM, partner dose 1.4 µM) | 69.2 | 62.4 | 85.2 | 48.1 | 70.4 | 82.6
Nc1ncn([C@H]2C[C@H](O)[C@@H](CO)O2)c(=O)n1 [decitabine] + Cn1cc(/C=C2\C(=O)Nc3cccnc32)c2ccccc21 [GW441756] (first compound 0.1 µM, partner dose 0.4 µM) | 84.3 | 77.9 | 88.5 | 107 | 102 | 95.8
Nc1ncn([C@H]2C[C@H](O)[C@@H](CO)O2)c(=O)n1 [decitabine] + Cc1cc([N+](=O)[O-])ccc1NS(=O)(=O)c1cc(Cl)ccc1Cl [FH535] (first compound 0.1 µM, partner dose 1 µM) | 77.7 | 89.1 | 94.4 | 113 | 74.3 | 103
CO[C@H]1C[C@@H]2CC[C@@H](C)[C@@](O)(O2)C(=O)C(=O)N2CCCC[C@H]2C(=O)O[C@H]([C@H](C)C[C@@H]2CC[C@@H](OCCO)[C@H](OC)C2)CC(=O)[C@H](C)/C=C(\C)[C@@H](O)[C@@H](OC)C(=O)[C@H](C)C[C@H](C)/C=C/C=C/C=C/1C [everolimus] + N#Cc1c(O)c2c(-c3ccc(-c4ccccc4O)cc3)csc2[nH]c1=O [A769662] (first compound 0.02 µM, partner dose 2 µM) | 73 | 70.8 | 85.4 | 84.7 | 72.4 | 82.7
CO[C@H]1C[C@@H]2CC[C@@H](C)[C@@](O)(O2)C(=O)C(=O)N2CCCC[C@H]2C(=O)O[C@H]([C@H](C)C[C@@H]2CC[C@@H](OCCO)[C@H](OC)C2)CC(=O)[C@H](C)/C=C(\C)[C@@H](O)[C@@H](OC)C(=O)[C@H](C)C[C@H](C)/C=C/C=C/C=C/1C [everolimus] + O=S(=O)(c1ccccc1)N(CC(F)(F)F)c1ccc(C(O)(C(F)(F)F)C(F)(F)F)cc1 [T0901317] (first compound 0.02 µM, partner dose 1.4 µM) | 79.5 | 62.5 | 85.3 | 63.6 | 60.9 | 78
Nc1ccn([C@@H]2O[C@H](CO)[C@@H](O)C2(F)F)c(=O)n1 [gemcitabine] + Cn1nnc2c(C(N)=O)ncn2c1=O [temozolomide] (first compound 0.0004 µM, partner dose 2 µM) | 93.3 | 76.6 | 84 | 107 | 81.3 | 96.7
Nc1ccn([C@@H]2O[C@H](CO)[C@@H](O)C2(F)F)c(=O)n1 [gemcitabine] + Cn1c(Nc2ccc(C(F)(F)F)cc2)nc2cc(Oc3ccnc(-c4ncc(C(F)(F)F)[nH]4)c3)ccc21 [CHIR265] (first compound 0.0004 µM, partner dose 0.08 µM) | 79.8 | 71.6 | 70 | 70.3 | 60.8 | 116
Nc1ccn([C@@H]2O[C@H](CO)[C@@H](O)C2(F)F)c(=O)n1 [gemcitabine] + COc1cc(N2CCC(N3CCN(C)CC3)CC2)ccc1Nc1ncc(Cl)c(Nc2ccccc2S(=O)(=O)C(C)C)n1 [NVP-TAE684] (first compound 0.0004 µM, partner dose 0.08 µM) | 91.3 | 102 | 59.2 | 91.2 | 68.1 | 89.2
CC(=O)O[C@@]12CO[C@@H]1C[C@H](O)[C@@]1(C)C(=O)[C@H](O)C3=C(C)[C@@H](OC(=O)[C@H](O)[C@@H](NC(=O)OC(C)(C)C)c4ccccc4)C[C@@](O)([C@@H](OC(=O)c4ccccc4)[C@H]21)C3(C)C [Docetaxel] + c1cc(-c2cnn3cc(-c4ccc(OCCN5CCCCC5)cc4)cnc23)ccn1 [Dorsomorphin] (first compound 0.0001 µM, partner dose 0.4 µM) | 44.7 | 26.9 | 38.1 | 38.3 | 58.6 | 48.6
Nc1ccn([C@@H]2O[C@H](CO)[C@@H](O)C2(F)F)c(=O)n1 [gemcitabine] + NCC(=O)Nc1ccc(-n2nc(C(F)(F)F)cc2-c2ccc3c(ccc4ccccc43)c2)cc1 [OSU03012] (first compound 0.0004 µM, partner dose 1 µM) | 90.2 | 96.3 | 68 | 63.6 | 74 | 69.6
Nc1nc(F)nc2c1ncn2[C@@H]1O[C@H](CO)[C@@H](O)[C@@H]1O [fludarabine] + Cc1nc(Nc2ncc(C(=O)Nc3c(C)cccc3Cl)s2)cc(N2CCN(CCO)CC2)n1 [dasatanib] (first compound 0.2 µM, partner dose 0.004 µM) | 72.5 | 86.9 | 69.7 | 22.9 | 97.6 | 43.5
CC(=O)O[C@@]12CO[C@@H]1C[C@H](O)[C@@]1(C)C(=O)[C@H](O)C3=C(C)[C@@H](OC(=O)[C@H](O)[C@@H](NC(=O)OC(C)(C)C)c4ccccc4)C[C@@](O)([C@@H](OC(=O)c4ccccc4)[C@H]21)C3(C)C [Docetaxel] + CN(c1ncccc1CNc1nc(Nc2ccc3c(c2)CC(=O)N3)ncc1C(F)(F)F)S(C)(=O)=O [PF562271] (first compound 0.0001 µM, partner dose 0.08 µM) | 46.8 | 26.9 | 37.8 | 40.6 | 71.2 | 43.2
CC(=O)O[C@@]12CO[C@@H]1C[C@H](O)[C@@]1(C)C(=O)[C@H](O)C3=C(C)[C@@H](OC(=O)[C@H](O)[C@@H](NC(=O)OC(C)(C)C)c4ccccc4)C[C@@](O)([C@@H](OC(=O)c4ccccc4)[C@H]21)C3(C)C [Docetaxel] + Clc1ccc(Nc2nnc(Cc3ccncc3)c3ccccc23)cc1 [vatalanib] (first compound 0.0001 µM, partner dose 2 µM) | 72 | 50.8 | 58.4 | 44 | 69.9 | 76.3
Nc1nc(F)nc2c1ncn2[C@@H]1O[C@H](CO)[C@@H](O)[C@@H]1O [fludarabine] + O=C(Nc1ccccc1)c1cc([N+](=O)[O-])ccc1Cl [GW9662] (first compound 0.2 µM, partner dose 2 µM) | 107 | 106 | 109 | 25.3 | 111 | 46.4
CC(=O)c1c(C)c2cnc(Nc3ccc(N4CCNCC4)cn3)nc2n(C2CCCC2)c1=O [palbociclib] + CCCCCCCCCCCC1=C(O)C(=O)C=C(O)C1=O [Embelin] (first compound 0.04 µM, partner dose 1.2 µM) | 61.6 | 62.3 | 60.1 | 69.5 | 67 | 65.6
CC(=O)c1c(C)c2cnc(Nc3ccc(N4CCNCC4)cn3)nc2n(C2CCCC2)c1=O [palbociclib] + CO[C@@H]1[C@H](N(C)C(=O)c2ccccc2)C[C@H]2O[C@]1(C)n1c3ccccc3c3c4c(c5c6ccccc6n2c5c31)C(=O)NC4 [Midostaurin] (first compound 0.04 µM, partner dose 0.08 µM) | 69.1 | 51.2 | 76.2 | 73.2 | 69.1 | 73.9
CC(=O)O[C@@]12CO[C@@H]1C[C@H](O)[C@@]1(C)C(=O)[C@H](O)C3=C(C)[C@@H](OC(=O)[C@H](O)[C@@H](NC(=O)OC(C)(C)C)c4ccccc4)C[C@@](O)([C@@H](OC(=O)c4ccccc4)[C@H]21)C3(C)C [Docetaxel] + CNC(=O)c1cc(Oc2ccc(NC(=O)Nc3ccc(Cl)c(C(F)(F)F)c3)cc2)ccn1 [sorafenib] (first compound 0.0001 µM, partner dose 0.4 µM) | 60.2 | 32.9 | 52.3 | 38.5 | 49.3 | 63.2
